Measurements from the supplement of paper PMC11417369.
This is one part of the list.

system: PfSIP2 AP2 domain 1 (GST-tagged); experiment: gcPBM binding intensity (ln(normalized median fluorescence intensity)); higher = stronger DNA binding
How it was run: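 Using an Agilent 4 × 180k array, primer-extended double-stranded 36-bp intergenic genomic probes and negative controls were exposed for 1 h to GST-fused P. falciparum DNA-binding domains expressed in E. coli. Binding was carried out in 1× PBS with 1% milk, 0.2 mg/ml BSA, 0.5% salmon testes DNA and 0.03% Triton X-100, and protein was detected with Alexa488 anti-GST antibody and a 488 nm scan. Binding intensity is the highest Masliner-normalised natural-log median intensity across replicate spots of either probe orientation.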

Sequence | gcPBM binding intensity (ln)
GTATATAAGTATATATGTACATATATTTTATATATA [XGTACX_site4745] | 7.14
AATACGAAGGATAAGAGTACTAATTAAATAAATGAA [XGTACX_site523] | 7.02
ATATAAGAATAAATAGTGCAAAATAAATGATTATTT | 8.09
TTTTTTTTTTTTTTGGTGCGATCTTTTAAATGATCC | 8.37
TTTTATAATTTAAAATAATGAAACTTCTTTCTATTT [TGCATGCA_negctrl_site324] | 6.74
TTTCTGATATTTTTATATTTTCTTATATATATATAT [GTGCAC_negctrl_site652] | 9.3
TTTAAATTTTAATATGCACACAAAATGTTATATTAA [CACACA_site8015] | 7.55
AATGTATTAAAATTACGTACATATGCACATTTTATA [XGTACX_site5046] | 7.52
TTTTTTATTTTGTGCACACACATAAAAATATAAATA [CACACA_site6497] | 9.8
TACTCTTTCCAGAAGTGTACATAGAAATAATTACAT [XGTACX_site2668] | 7.03
TAAAAATAATATATTTGTACATATGTGTATACATAA [XGTACX_site741] | 6.97
TATAAATACATACATACACACATATATATATATATT [CACACA_site6116] | 7.21
TCCTAAAAAAAAAAAAAAAATGAAAAAGGAAAAAAA [CACACA_negctrl_site1646] | 6.6
CAAGCACAGAAACACACACACACACCGACACAGACA [CACACA_site4359] | 7.19
AAAAAAAAAAAAAAAAGTACTAAATGTAAAAGAATA [XGTACX_site2164] | 7.53
TAGTATTATTATTATGCACACAAAAATATTTATACA [CACACA_site9219] | 7.81
TTTTTTTTTTTTTTTTGTACATAATTATATATTTAC [XGTACX_site7540] | 7.08
AGCATTTCTTTTACATGTACATAATATTTTTAATAA [XGTACX_site1968] | 7.43
TATATATGTATGTATGCATGCCCTTTTTTAAAAAAA [TGCATGCA_site434] | 7.1
AAAAAAAAAAAAAAAAAAATAAAAAATAAATAAATA [CACACA_negctrl_site1498] | 7.9
AAGAAAAAACAAACATGTACACATAATTTAGTTTTT [XGTACX_site3121] | 6.81
ATATGCTAATAAAATTGTACATATTATTCATATTGT [XGTACX_site2344] | 6.96
ATTTTTCCTCTCTTTTGTACTTATATATATATATAT [XGTACX_site7405] | 9.67

Sequence | gcPBM binding intensity (ln)
ATAAATACTTTTTGGTGTACACTTTTAAATGAAAAA [XGTACX_site3042] | 8.04
CAATTAAAGAAAAACAGTACGTGTATCAAACATCCT [XGTACX_site8990] | 6.82
TGACTACATAAAATGACACACACAAACTTTAAAATT [CACACA_site9151] | 6.9
ATATATTTTTAGCACAGTACAATATAATTAAATATA [XGTACX_site6779] | 7.03
AAAAGTTGTTTATAATGTACAAGGTAGAAAAAAACA [XGTACX_site1454] | 7.28
TAAATGGATTGTTCAGGTACACATAAATATGATATT [XGTACX_site6963] | 6.85
ATATTATATAATAATGCATGCACCTTATTTTCATTT [TGCATGCA_site405] | 11.3
AACAAAATAAAAATAACACACACATTTATATATATA [CACACA_site8313] | 8.11
ATTATATTATTTTAAAGTACACACATATATTAATAT [XGTACX_site4769] | 7.24
TTTTTATTATTTAAATGTACATATAAATATATATAT [XGTACX_site6870] | 8.05
AAGAAGAAACGGAAAAGTACAAAGAAGAAATAAGTA [XGTACX_site3680] | 6.85
CTTACAGACATATATACACACATGTATATTTTATAT [CACACA_site549] | 6.87
TTTTCTTTTCTCTTCTTTTTCTCCCATTATTAATCT [XGTACX_negctrl_site406] | 6.7
ATGTTTTTAATTTATTGTACATTAATTTGTATTATT [XGTACX_site253] | 7.25
GAGGATGCCTATGGCACACATTATAAAACTGTCGCT [CACACA_site4322] | 6.57
CATAAAATTGTGAAGTGTACATATTTTTAAATATAA [XGTACX_site8986] | 7.06
ATAACTTTATTTTCCTGTACACACATTTGACATATT [XGTACX_site7192] | 7.38
ATATATAATATAAGATGTACAATAAAATCTATATAT [XGTACX_site546] | 7.01
AGAAATATCTAATTGTGTACTCAAGAAAAAGTTACG [XGTACX_site372] | 7.22
GAATAAAAATTTTAATGTACATATTTTTTATTTATA [XGTACX_site8935] | 7.08
ATATTTTATATGTTCACACATACATAAACATATTTT [CACACA_site4948] | 7.15
GGTAGTTATTATCTCCGTACTTATAAAGAAAAAAGG [XGTACX_site4674] | 7.18
TACAAATATATAAAATGTACATATATATACATATTA [XGTACX_site3029] | 6.92

Sequence | gcPBM binding intensity (ln)
TTTATTTTCATATGAACACACATATAAATATTATAA [CACACA_site7172] | 7.15
AAAAAATATAAAAAAAGTACACAAAAACTACAAAAA [XGTACX_site2677] | 6.96
AAAAAGAGGAAAAAGATAAAGAAATTAAAGGAGAGA [CACACA_negctrl_site423] | 6.69
TTTAATCATTTTATTTGTACTCATAAAAAATATAAT [XGTACX_site5537] | 7.29
TCTGTAAACATATTCACACACATAAATTCGCATATA [CACACA_site1866] | 6.95
ACAAAATAATTGTTTACACACCCATTTGTAATTTTA [CACACA_site3615] | 6.88
TATCATTGTTCATGCTTGCACTTTTGTTACTGTTCC [GTGCAC_site9425] | 8.06
GAAAATTTATATTGCACACATAGGGAATAAAAAAAA [CACACA_site2146] | 7.24
AAAATGAAATATGTTATATATATATATATATATATA [CACACA_negctrl_site1752] | 9.72
TGTATGAAAATAAATGCATGCCAAATATATATATAT [TGCATGCA_site132] | 8.82
TAATTTCCTTAAGAATGTACTTACATTTTATTATTT [XGTACX_site5998] | 6.72
ATGGACAAGTTAAACGCACACAAATATATACAGACA [CACACA_site1652] | 7.38
TAATATGAAATGTGTACACACGCACCCACAAAAAAA [CACACA_site8949] | 10.7
GTTTATGTATTATTATGTACGTATCATAATATATAT [XGTACX_site2385] | 7.51
ACTTTATTTTCCTGTACACACATTTGACATATTAAA [CACACA_site3378] | 8.2
CACCAAACTAAATGTACACACATACATAAATATAAA [CACACA_site4765] | 7.47
AAAAACAAAAAAAAAACACACAATTCTAGTTATTTT [CACACA_site2767] | 6.68
TTTTTTTTCCTAATGTGTACTAAAAATGAACAATAA [XGTACX_site5248] | 7.25
TTTTTTATTTTATTTTATTTTTATTTTTTTTTTTTT [GTGCAC_negctrl_site596] | 6.94
AACATTATTTTGTGTACACATTCGGTTATATTATAT [CACACA_site5628] | 7.31
ATATTTTTTTCATAGACACACACAATATATCTGTTT [CACACA_site8993] | 7.18
AAAAAAAAGAAACACACACACATACACATAAATATA [CACACA_site3807] | 6.98
TAAACATAAATATGCACACATATACAGATATTCATA [CACACA_site5471] | 7.04

Sequence | gcPBM binding intensity (ln)
TTTTACTTAAGACACACACACACAAAAAAAAAAAAA [CACACA_site6573] | 7.39
ATAAAATACATATAAACACACATATAAACCGACATA [CACACA_site2477] | 7.09
AGTTTTTACTCTAATGGTACAGTGCAACTAATAAAT [XGTACX_site6950] | 8.48
TTTATGTAAAAATATAGTACATATTAAAAGATAAGA [XGTACX_site8134] | 6.79
ATATATTCCATAAAGGTGCTGTTAACGTGTCAACGT [GTGCAC_site9402] | 7.84
TAAGTATACACATACACACACACACTAAAAAAAAAA [CACACA_site6337] | 7.11
TATTTTCCCTCCATATGTACTTAATTATAAGCACAT [XGTACX_site4000] | 7.13
TATATATCGCATAAAACACACAAAAAAAAAATTAAA [CACACA_site7767] | 7.07
AAAAAAAAAATATACACACACACATACACATAAATA [CACACA_site3808] | 7.03
ATATATATCTTTTGTGTGCACATATATATAATATAT | 9.23
TTATATTCTATTTATTGTACTTAAATATATATATAT [XGTACX_site6400] | 8.96
AAACGAAAAAAATGGTGTACATTAAAATGAAAATTG [XGTACX_site7040] | 6.96
TCTATCTTTTCCAAACGTACATTTTTTATATAAATT [XGTACX_site5352] | 7.26
ATTTCATTTATAAGGATATCTACTTTTTATTTTAAT [GTGCAC_negctrl_site59] | 6.79
GTGCCATTTAAAAAATGTACAAGAAAATGTTCATCA [XGTACX_site2865] | 7.05
TGGTATTGAATTTTTTGTACACATAAAATATATATA [XGTACX_site7614] | 7.29
TATTTTAATTTTTTTTTGTTTTTTCTAATACATGTA [CACACA_negctrl_site1399] | 6.67
TTTTTTTTGGTATAATGTACATTTTCACTTATGTAT [XGTACX_site3259] | 6.98
ATTTTATTTTCTCACACACACATATATATATATATA [CACACA_site5781] | 9.68
ACATATGTTAAAAAGGCATGCATTCTTTTTATTTTA [TGCATGCA_site1043] | 6.98
